Data from the supplement of paper PMC7826260.
The list shows a part of the results. Cleavage of a single-stranded DNA pool by Rep nickase domains was read by sequencing (3 µM enzyme, 1 h, 37 °C); shown is the middle of each 90-letter strand. The score is log2 (uncut reads / reads without enzyme); strong cutting gives strongly negative numbers. There is no active / inactive call. Reads are scaled to the total; values above 0 arise when much of the pool is cut.

What was measured:
Assay in all cases: uncleaved DNA left, log2 of reads against the no-enzyme library (log2 ratio); higher = less cleavage (more negative = more Rep cleavage of the k-mer); sequences stand for … in CTCGTCCG…ACCGGAGA
[1] = tested on: T1, Rep nickase domain of Muscovy duck circovirus
T1 sequence (residues 1-111, tag not shown): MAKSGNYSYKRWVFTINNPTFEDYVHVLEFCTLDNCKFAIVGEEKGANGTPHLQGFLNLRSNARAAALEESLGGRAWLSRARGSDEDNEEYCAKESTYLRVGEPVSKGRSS
Protocol: (§1)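 A pool of 90-nt single-stranded DNAs with seven random bases just before the constant AC of the nick site (name = the seven bases) was cut by 3 µM recombinant His6-SUMO-tagged Rep nickase domain (300 nM DNA, 50 mM HEPES pH 8.0, 50 mM NaCl, 1 mM MnCl2, 1 h, 37 °C, three replicates). Uncut DNA was amplified and sequenced.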

[2] = tested on: T2, Rep nickase domain of banana bunchy top virus
T2 sequence (residues 1-94, tag not shown): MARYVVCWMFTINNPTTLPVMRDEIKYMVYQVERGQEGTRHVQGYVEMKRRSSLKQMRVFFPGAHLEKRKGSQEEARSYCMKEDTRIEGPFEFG
Protocol: as §1

[3] = tested on: T3, Rep nickase domain of cabbage leaf curl virus
T3 sequence (residues 1-116, tag not shown): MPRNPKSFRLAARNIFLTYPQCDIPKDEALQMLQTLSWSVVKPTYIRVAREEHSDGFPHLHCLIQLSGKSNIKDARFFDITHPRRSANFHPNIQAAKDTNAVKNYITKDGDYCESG
Protocol: as §1

[4] = tested on: T4, Rep nickase domain of chickpea chlorotic dwarf virus
T4 sequence (residues 1-124, tag not shown): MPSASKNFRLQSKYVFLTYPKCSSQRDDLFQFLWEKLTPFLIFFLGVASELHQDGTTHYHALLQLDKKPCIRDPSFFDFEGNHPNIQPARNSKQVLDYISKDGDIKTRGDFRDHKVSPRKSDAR
Protocol: as §1

[5] = tested on: T5, Rep nickase domain of faba bean necrotic yellows virus
T5 sequence (residues 1-98, tag not shown): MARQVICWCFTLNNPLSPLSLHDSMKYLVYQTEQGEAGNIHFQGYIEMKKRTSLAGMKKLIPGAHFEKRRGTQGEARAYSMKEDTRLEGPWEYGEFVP
Protocol: as §1

[6] = tested on: T6, Rep nickase domain of maize striate mosaic virus
T6 sequence (residues 1-117, tag not shown): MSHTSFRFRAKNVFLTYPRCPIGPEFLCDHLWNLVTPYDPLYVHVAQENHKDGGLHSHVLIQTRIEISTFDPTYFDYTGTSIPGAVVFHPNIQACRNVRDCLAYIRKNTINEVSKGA
Protocol: as §1

[7] = tested on: T7, Rep nickase domain of porcine circovirus 2
T7 sequence (residues 2-116, tag not shown): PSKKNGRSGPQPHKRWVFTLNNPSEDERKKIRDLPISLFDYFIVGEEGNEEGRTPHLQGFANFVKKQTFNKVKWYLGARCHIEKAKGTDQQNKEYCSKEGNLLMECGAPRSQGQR
Protocol: as §1

[8] = tested on: T8, Rep nickase domain of tomato golden mosaic virus
T8 sequence (residues 1-124, tag not shown): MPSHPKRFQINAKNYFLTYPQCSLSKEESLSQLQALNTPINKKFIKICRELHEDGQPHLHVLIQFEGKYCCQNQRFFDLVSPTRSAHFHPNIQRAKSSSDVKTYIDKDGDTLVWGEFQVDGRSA
Protocol: as §1

[9] = tested on: T9, Rep nickase domain of tomato yellow leaf curl virus
T9 sequence (residues 1-136, tag not shown): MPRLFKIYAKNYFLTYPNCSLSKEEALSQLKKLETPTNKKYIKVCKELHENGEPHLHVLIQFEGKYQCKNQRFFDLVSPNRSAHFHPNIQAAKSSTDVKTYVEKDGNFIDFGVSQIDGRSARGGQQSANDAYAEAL
Protocol: as §1

[10] = tested on: T10, Rep nickase domain of wheat dwarf virus
T10 sequence (residues 1-137, tag not shown): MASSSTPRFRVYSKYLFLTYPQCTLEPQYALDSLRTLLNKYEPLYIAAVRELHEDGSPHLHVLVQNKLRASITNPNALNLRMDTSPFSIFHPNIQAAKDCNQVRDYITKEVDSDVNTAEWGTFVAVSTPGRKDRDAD
Protocol: as §1

| Sequence | uncleaved DNA left (log2) [1] | uncleaved DNA left (log2) [2] | uncleaved DNA left (log2) [3] | uncleaved DNA left (log2) [4] | uncleaved DNA left (log2) [5] | uncleaved DNA left (log2) [6] | uncleaved DNA left (log2) [7] | uncleaved DNA left (log2) [8] | uncleaved DNA left (log2) [9] | uncleaved DNA left (log2) [10] |
| --- | --- | --- | --- | --- | --- | --- | --- | --- | --- | --- |
| CCCTATC | 0.0101 | 0.00409 | 0.293 | 0.188 | 0.212 | -0.462 | -0.0776 | -0.00331 | 0.226 | 0.12 |
| CCAGACT | 0.0114 | -0.0535 | -0.16 | -1.21 | -0.201 | 0.675 | -0.0756 | -0.0838 | -0.256 | -0.2 |
| CCCATGC | -0.0955 | -0.0562 | -0.745 | -0.725 | -0.246 | -1.12 | 0.0776 | -0.158 | 0.00469 | -0.251 |
| CGGATGT | -0.0626 | -0.0548 | 0.159 | 0.939 | 0.0509 | 1.54 | 0.0604 | -0.115 | -0.0356 | 0.0546 |
| AGGTCAA | 0.056 | 0.143 | 0.405 | 0.691 | 0.0549 | 0.697 | 0.124 | 0.0443 | 0.0609 | 0.119 |
| CCGGCGG | -0.0615 | -0.116 | 0.0676 | 0.655 | -0.128 | 0.807 | 0.00937 | -0.0475 | -0.237 | -0.258 |
| TTGGGCC | -0.0271 | 0.038 | 0.484 | 0.677 | 0.047 | 0.484 | 0.133 | -0.0444 | 0.21 | 0.14 |
| TAACACT | 0.0283 | 0.0302 | -3.62 | -3.39 | 0.0253 | -1.62 | -0.696 | -0.858 | -0.0493 | -2.92 |
| GTATCTA | 0.0459 | 0.0377 | 0.303 | 0.756 | -0.116 | 1.65 | -0.0436 | 0.0697 | -0.00804 | 0.0816 |
| CCCTGGA | -0.0583 | -0.0561 | -0.0597 | -0.302 | 0.0747 | -0.673 | -0.131 | 0.00696 | -0.0351 | 0.00614 |
| TACGCTC | -0.0651 | -0.0965 | -0.278 | -1.28 | 0.0211 | -0.664 | -0.085 | -0.233 | -0.0752 | -0.0583 |
| GAACTTC | -0.0864 | -0.00527 | 0.173 | 0.237 | 0.0126 | 1.08 | -0.145 | -0.0595 | -0.0544 | 0.106 |
| AGTGGGG | 0.269 | 0.0864 | 0.45 | 0.631 | 0.155 | 0.813 | 0.292 | 0.224 | 0.0755 | 0.141 |
| GGTGGCG | -0.0204 | -0.104 | -0.541 | 0.55 | 0.0405 | 0.0719 | 0.112 | 0.0711 | -0.158 | -0.15 |
| GTTGCGA | 0.0791 | 0.0824 | -0.657 | 0.0957 | 0.0833 | -0.344 | 0.131 | 0.0185 | 0.126 | 0.0299 |
| GGGCGTC | 0.0685 | 0.0944 | 0.803 | 1.75 | -0.0919 | 2.11 | 0.159 | -0.0997 | -0.0307 | 0.121 |
| AATTTTG | -0.0928 | 0.0431 | -0.559 | -0.508 | 0.0694 | -1.17 | 0.0388 | -0.0431 | 0.0606 | -0.0356 |
| GGCCCCT | 0.179 | 0.129 | 0.522 | 0.814 | 0.0955 | 1.67 | 0.0942 | 0.0516 | 0.2 | 0.229 |
| CTTACTA | -0.274 | -0.0677 | -0.338 | -2.69 | -0.0461 | -0.797 | -0.246 | -0.173 | 0.0436 | -0.137 |
| TCTTACT | -3.54 | -0.739 | -1.11 | -2.97 | -0.0613 | -0.436 | -3.9 | -0.241 | -0.0642 | -0.786 |
| TGCCGCG | -0.128 | -0.145 | -0.763 | 0.474 | 0.0218 | -0.497 | 0.0658 | -0.0702 | -0.0738 | -0.157 |
| CCCTATG | 0.0308 | -0.0528 | -0.627 | -0.456 | 0.0485 | -1.1 | 0.182 | 0.0748 | -0.0713 | -0.0883 |
| AAGCAGG | 0.0886 | 0.036 | 0.0601 | 0.35 | 0.114 | -0.0868 | 0.253 | 0.174 | -0.0577 | 0.0638 |
| GTACACT | 0.00394 | 0.0215 | 0.213 | 0.476 | -0.0131 | 1.75 | 0.0491 | 0.0777 | 0.0882 | 0.097 |
| ATAGTAT | 0.0155 | -0.0224 | 0.136 | 0.751 | 0.105 | 1.1 | 0.153 | 0.109 | -0.0746 | -0.0696 |
| AGAAATC | 0.000925 | 0.0854 | 0.347 | 0.663 | 0.127 | 0.00751 | 0.133 | 0.041 | 0.0422 | 0.12 |
| CTTTTGA | 0.158 | -0.0428 | -0.237 | -0.311 | 0.0503 | -1.09 | 0.00735 | -0.0562 | -0.0355 | 0.0867 |
| AATGAAC | 0.161 | 0.111 | 0.137 | 0.52 | 0.2 | 0.806 | 0.328 | 0.155 | 0.11 | 0.154 |
| TTTATAC | -0.173 | -0.0275 | 0.234 | -0.531 | -0.0284 | -0.189 | -0.0847 | -0.0683 | -0.0211 | 0.0777 |
| TAGAATG | 0.0349 | -0.0644 | -0.136 | 0.49 | -0.0206 | 1.12 | -0.044 | -0.0551 | -0.22 | -0.00572 |
